Experimental data reported in paper PMC11093223, “Cargo selective vesicle tethering: The structural basis for binding of specific cargo proteins by the Golgi tether component TBC1D23” (Science Advances, 2024).
Results are given in words; binding and its absence hold for the method and conditions named. Binding seen in cells or lysates may run through a third protein. Some results given as binding are weak or reduced against the parent protein; the word gives no strength.

Chains of the proteins cited; added tags and fusions are not shown. Residues count along the entry.
UniProt Q8K0F1, residues 559-684: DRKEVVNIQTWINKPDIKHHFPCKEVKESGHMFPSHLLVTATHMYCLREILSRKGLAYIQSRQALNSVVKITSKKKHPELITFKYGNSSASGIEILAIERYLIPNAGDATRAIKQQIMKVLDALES
UniProt Q96ET8, residues 1-34: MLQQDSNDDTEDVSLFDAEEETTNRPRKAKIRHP

Target: GST-TBC1D23 (559 to 684) (mouse) (UniProt Q8K0F1)
Experiment: pull-down; GST-tagged bait from bacterial lysate on glutathione-Sepharose beads (washed, once with 500 mM NaCl), 2 h at 4°C with clarified bacterial lysate containing the prey; 50 mM tris pH 7.4, 150 mM NaCl, 1 mM EDTA, 5 mM 2-mercaptoethanol, 1% Triton X-100; Coomassie stain or anti-His6 …; only the target purified

binding: binds
Substance: His6-MBP-TVP23C (1 to 34) (from UniProt Q96ET8 1-34) (domain or fragment)
